The text below walks through data of PubChem BioAssay (NCI).

The experiment concerns NCI-H322M lung. As to the kind of experiment: growth of human tumour cells (NCI), 48 h.

Several values for one entry are separate records, joined by “and”; a condition that tells them apart may be missing. Equal entries are not always repeated.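 Cultured in 96-well plates, cells were exposed to test compound for 48 hours across five concentrations. GI50 marks 50% less growth. Definition used: TGI = concentration required for complete inhibition of growth.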

`Cc1sccc1C(=S)Nc1ccc(Cl)c(/C=N/OC(C)(C)C)c1` showed a TGI greater than 100 µM.

In the case of `COc1nc(NC2OC(COC(C)=O)C(OC(C)=O)C(OC(C)=O)C2OC(C)=O)c(N=CC=Nc2c(NC3OC(COC(C)=O)C(OC(C)=O)C(OC(C)=O)C3OC(C)=O)nc(OC)n(C)c2=O)c(=O)n1C` (configuration not stated), the TGI was greater than 100 µM.

On to `CCN1CCN(c2cc(C)nc(N(CCCNc3ccnc4cc(Cl)ccc34)Cc3cccs3)n2)CC1`, for which the GI50 was 2.85 µM and the TGI was 10.9 µM.

`Cc1cccc(NC(=O)c2sc3nc4c(cc3c2N)CCCC4)c1`: the GI50 was greater than 100 µM and the TGI is greater than 100 µM.

Take `CC1=C(SCCC(=O)OCC(=O)NCCC[Te]c2ccccc2)C(=O)c2ccccc2C1=O`: the GI50 was 3.05 µM and the TGI was determined as 11 µM.

On to `Cc1cc(S(=O)(=O)Nc2nc(N)nc(N(C)C)n2)c(S)cc1Cl`, for which the TGI is greater than 10 µM.

For `COc1ccc(C23c4ccc(OC)cc4CC2(c2ccc([N+](=O)[O-])cc2)Cc2cc(OC)ccc23)cc1` (configuration not stated), the TGI was greater than 100 µM.

Turning to `C=C(C)[C@@H]1CC[C@]2(CNCCO)CC[C@]3(C)[C@H](CC[C@@H]4[C@@]5(C)CCC(N)[C@@](C)(CO)[C@@H]5CC[C@]43C)[C@@H]12` (some centres not stated), the GI50 is 1.79 µM and the TGI is 3.53 µM.

Take `CN(C)c1ccc2nc3ccc(=N)cc-3sc2c1`: the GI50 was 23.3 µM and the TGI was greater than 100 µM.

The compound `O=C1CCCn2c(nc3ccccc32)N1` had a TGI greater than 100 µM.

`O=C1OCC2=C1C(c1cccc(F)c1)c1cc3c(cc1N2CCO)CCC3` (configuration not stated): the GI50 is 0.368 µM and the TGI is greater than 50 µM.

Regarding `OCCNc1ncnc2nc[nH]c12`, the TGI is greater than 100 µM.

With `C/C(CC(=O)Nc1ccccc1[N+](=O)[O-])=N\NC(N)=O`, the TGI is greater than 100 µM.

Regarding `CN(O)C(=O)c1ccccc1`, the TGI is greater than 100 µM.

As for `COc1ccc(-c2cc(=O)c3c(O)c(OC)c(O)c(OC)c3o2)cc1OC`, the TGI was greater than 100 µM.

In the case of `COc1cccc2c1C(CO)N1C(C#N)C3CC(C(=O)O)C(C1C2)N3C` (configuration not stated), the GI50 was 0.659 µM and the TGI was 5.35 µM.

Compound `O=C1C=Cc2cscc21` returned a TGI greater than 100 µM.

With `CCOC1=CP(=O)(OCC)CC(C)=C1Cl` (configuration not stated), the TGI is greater than 100 µM.

`COc1cc2c(cc1OC)C1C(O)C(OC)C(Br)C3(Br)CCN(C2)C13` (configuration not stated) displayed a TGI greater than 100 µM.

In the case of `CCCCCCCCCCCCC[N+](C)(C)Cc1ccccc1`, the GI50 was 2.37 µM and the TGI worked out at 5.62 µM.

With `CC(NC(=O)C(CC(=O)OCc1ccccc1)NC(=O)OCc1ccccc1)c1ccccc1` (configuration not stated), the TGI was greater than 100 µM.

`CCCCCCCCCCCCCCCCCCOP(=O)([O-])OC1CC[N+](C)(C)CC1`: the GI50 is greater than 10 µM; the TGI was > 10 µM and 28.9 µM.

With `CN(C)CCCNC(=O)CCNC(=O)c1cc(NC(=O)c2cc(NC(=O)c3cc(NC(=O)CCCNC(=O)c4cc(NC(=O)c5cc(NC(=O)c6nccn6C)cn5C)cn4C)cn3C)cn2C)cn1C`, the TGI is greater than 100 µM.

On to `COc1cc(/C=N/N=C(\N)NO)cc(Cl)c1O`, for which the TGI is greater than 100 µM.

As for `O=c1nc2sc3ccc4ccccc4c3n2nc1-c1ccccc1`, the TGI was greater than 100 µM.

As for `Nc1nc[n+](Cc2ccccc2CCO)c2nc[nH]c12`, the TGI was greater than 100 µM.

Take `Cn1nc(-c2cccs2)cc1/N=C(\N)C(C)(C#N)Cc1ccccc1` (configuration not stated): the GI50 was 30.2 µM and the TGI came to 95.6 µM.

Regarding `CCOC1CN(C)C(=Nc2cccc3ccccc23)S1` (configuration not stated), the TGI is greater than 10 µM.

`N#CCCC1(CCC#N)CCc2ccccc2C1=O` yielded a TGI greater than 100 µM.

In turn, `CSC1(C)CC2C(CC1N1CCCCC1)C2(C)C` (configuration not stated) gave a TGI greater than 100 µM.

Consider `COc1cc(/C=C2\CC3C4CCC5=CC(=O)CC[C@]5(C)C4CC[C@]3(C)C2=O)ccc1OCCCn1ccnc1` (some centres not stated), for which the GI50 is 0.254 µM and the TGI came out at 3.54 µM.

Compound `CCOC(=O)C(=O)/C=C(\C)Nc1c(NC2OCC(OC(C)=O)C(OC(C)=O)C2OC(C)=O)nc(SC)[nH]c1=O` (configuration not stated) registered a TGI greater than 100 µM.

The compound `CC(C)(Cl)C(Cl)CC/C(CBr)=C(\Cl)CCl` (configuration not stated) returned a TGI of 29.4 µM.

Regarding `O=C(OC(CNc1c(C(=O)c2ccccc2)c(=O)n(Cc2ccccc2)c(=O)n1Cc1ccccc1)CN1CCOCC1)c1ccccc1` (configuration not stated), the GI50 is 56.8 µM and the TGI was greater than 100 µM.

As to `Nc1nc(-c2cccc3ccccc23)cc2ccccc12`, the GI50 is 0.912 µM and the TGI worked out at 20.4 µM.

Compound `CCOC(=O)C=C1CCC2(CC1)OCCO2` came in with a TGI greater than 100 µM.

Consider `COc1cc(-n2cncc2-c2ccc3ccccc3c2)cc(OC)c1OC`, for which the GI50 is 3.7 µM and the TGI was greater than 100 µM.

Consider `CC(C)(C)c1[nH]nc2c1C(c1cc3ccccc3[nH]c1=O)Nc1cc(C(=O)Nc3ccc(Cl)cc3)ccc1N2` (configuration not stated), for which the GI50 is 3.06 µM and the TGI amounted to 9.84 µM.

As to `CCCCC1=C(Br)C(=C(Br)Br)OC1=O`, the TGI was determined as 22 µM.

On to `CCN(CC)c1ccc(N=O)cc1`, for which the GI50 is 2.09 µM and the TGI stood at 6.02 µM.

`Cc1nc(-c2nc(C)c(C(=O)/C=C/c3ccc(N(C)C)cc3)s2)sc1C(=O)/C=C/c1ccc(N(C)C)cc1` returned a TGI greater than 100 µM.

For the compound `C[C@H](CCC(=O)NN)[C@H]1CC[C@H]2[C@@H]3CC[C@@H]4C[C@H](O)CC[C@]4(C)[C@H]3CC[C@]12C`, the TGI was greater than 100 µM.

Regarding `COc1cc2c3c(n(CCCN=[N+]=[N-])c(=O)c2cc1OC)-c1ccc(C#N)cc1C3=O`, the GI50 was greater than 100 µM and the TGI was greater than 100 µM.

Take `COC(=O)c1c2c(c[n+]([O-])c1C)C(=O)C=C(NCc1ccccc1)C2=O`: the GI50 is 0.209 µM and the TGI came to 0.506 µM.

Consider `c1ccc(N=C2SC(c3ccccc3)(c3ccccc3)c3ccccc32)cc1`, for which the TGI is greater than 100 µM.

`Cn1cc(NC(=O)c2cc(NC(=O)c3cc(NC=O)cn3C)cn2C)cc1C(=O)NCCC(=N)N`: the TGI was greater than 100 µM.

Take `O=C1NC(=O)C(C(=O)C(=O)Nc2cccc(C(F)(F)F)c2)C(=O)N1`: the TGI is greater than 100 µM.

Compound `CON(C)C(=O)CCCO` came in with a TGI greater than 100 µM.

The compound `COc1c(CC(=O)c2ccccc2)c2ccccc2n1C(C)=O` registered a TGI greater than 100 µM.

For the compound `CC[C@]12C=CCN3CC[C@]4(C(=C(C(=O)OC)C1)Nc1cc(OC)c(OC(C)=O)cc14)[C@@H]32`, the GI50 was 1.3 µM and the TGI turned out to be 18.8 µM.

Consider `Cc1ccccc1N=Nc1cc(C)c(N=Nc2c(O)ccc3ccccc23)cc1C`, for which the TGI is greater than 100 µM.

`Cc1ccc(O)c(N=Nc2c(O)cc(S(=O)(=O)O)c3ccccc23)c1` gave a TGI greater than 100 µM.

Take `Cc1[nH]c2c(C)cccc2c1C1Cc2ccccc2N1` (configuration not stated): the TGI stood at 55.8 µM.

Compound `COc1nc(-c2cn(S(=O)(=O)c3ccc(C)cc3)c3ccc(Br)cc23)cc(C(F)(F)F)c1C#N` gave a TGI greater than 100 µM.

`CC#Cc1nc2ccccc2c(=O)[nH]1`: the GI50 is 5.55 µM and the TGI stood at 24.1 µM.

Take `O=C(Cc1csc2nc(-c3ccc(Br)cc3)cn12)N/N=C/c1cc(Br)ccc1O`: the GI50 was 5.24 µM and the TGI was determined as 37 µM.

As for `Cc1ccc2nc(C=Nc3ccccc3Cl)cc(C)c2c1`, the TGI was greater than 100 µM.

Compound `COc1cc2c(cc1OC)C(=O)/C(=C/c1ccccc1)CC2` gave a TGI greater than 100 µM.

Consider `C/C(=N\NC(=S)NCCNC(=S)N/N=C(\C)c1ccccn1)c1ccccn1`, for which the TGI was 45 µM.

Turning to `CC1CC(c2ccc(Cl)cc2)=Nc2ccccc2S1` (configuration not stated), the TGI is greater than 100 µM.

For `COc1cc(C2c3cc4c(cc3OC(N3CCCCC3)C2C)OCO4)cc(OC)c1OC` (configuration not stated), the TGI was greater than 100 µM.
